Laboratory results from the supplement of paper PMC7826260.
The list shows a part of the results. Cleavage of a single-stranded DNA pool by Rep nickase domains was read by sequencing (3 µM enzyme, 1 h, 37 °C); shown is the middle of each 90-letter strand. Numbers give uncut DNA relative to the enzyme-free pool, as log2; more negative means more cut, near 0 not cut, and no call is made. Reads are scaled to the total; values above 0 arise when much of the pool is cut.

Legend:
Assay in all cases: uncleaved DNA left, log2 of reads against the no-enzyme library (log2 ratio); higher = less cleavage (more negative = more Rep cleavage of the k-mer); sequences stand for … in CTCGTCCG…ACCGGAGA
[1] = system: T1, Rep nickase domain of Muscovy duck circovirus
T1 sequence (residues 1-111, tag not shown): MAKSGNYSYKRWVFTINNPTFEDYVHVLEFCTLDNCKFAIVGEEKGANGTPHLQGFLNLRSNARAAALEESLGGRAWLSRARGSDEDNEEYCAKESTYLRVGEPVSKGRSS
Procedure: (§1)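 A pool of 90-nt single-stranded DNAs with seven random bases just before the constant AC of the nick site (name = the seven bases) was cut by 3 µM recombinant His6-SUMO-tagged Rep nickase domain (300 nM DNA, 50 mM HEPES pH 8.0, 50 mM NaCl, 1 mM MnCl2, 1 h, 37 °C, three replicates). Uncut DNA was amplified and sequenced.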

[2] = system: T2, Rep nickase domain of banana bunchy top virus
T2 sequence (residues 1-94, tag not shown): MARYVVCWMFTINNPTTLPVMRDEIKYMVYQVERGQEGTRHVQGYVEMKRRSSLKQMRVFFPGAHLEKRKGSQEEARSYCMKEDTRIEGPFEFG
Procedure: as §1

[3] = system: T3, Rep nickase domain of cabbage leaf curl virus
T3 sequence (residues 1-116, tag not shown): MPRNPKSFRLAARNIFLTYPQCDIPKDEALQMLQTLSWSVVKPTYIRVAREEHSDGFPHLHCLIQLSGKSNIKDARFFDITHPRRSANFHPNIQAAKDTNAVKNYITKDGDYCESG
Procedure: as §1

[4] = system: T4, Rep nickase domain of chickpea chlorotic dwarf virus
T4 sequence (residues 1-124, tag not shown): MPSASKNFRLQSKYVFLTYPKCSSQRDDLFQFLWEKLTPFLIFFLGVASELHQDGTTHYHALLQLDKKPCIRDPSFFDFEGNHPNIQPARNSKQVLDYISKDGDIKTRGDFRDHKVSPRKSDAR
Procedure: as §1

[5] = system: T5, Rep nickase domain of faba bean necrotic yellows virus
T5 sequence (residues 1-98, tag not shown): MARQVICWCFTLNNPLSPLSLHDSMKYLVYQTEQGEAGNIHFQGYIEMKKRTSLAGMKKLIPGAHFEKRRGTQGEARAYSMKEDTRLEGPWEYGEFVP
Procedure: as §1

[6] = system: T6, Rep nickase domain of maize striate mosaic virus
T6 sequence (residues 1-117, tag not shown): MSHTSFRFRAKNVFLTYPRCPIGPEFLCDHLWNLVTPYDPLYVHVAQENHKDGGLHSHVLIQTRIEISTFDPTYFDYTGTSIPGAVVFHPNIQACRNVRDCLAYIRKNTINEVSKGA
Procedure: as §1

[7] = system: T7, Rep nickase domain of porcine circovirus 2
T7 sequence (residues 2-116, tag not shown): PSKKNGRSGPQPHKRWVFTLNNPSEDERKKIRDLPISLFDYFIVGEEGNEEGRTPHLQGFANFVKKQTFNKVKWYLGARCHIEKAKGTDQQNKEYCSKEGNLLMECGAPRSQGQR
Procedure: as §1

[8] = system: T8, Rep nickase domain of tomato golden mosaic virus
T8 sequence (residues 1-124, tag not shown): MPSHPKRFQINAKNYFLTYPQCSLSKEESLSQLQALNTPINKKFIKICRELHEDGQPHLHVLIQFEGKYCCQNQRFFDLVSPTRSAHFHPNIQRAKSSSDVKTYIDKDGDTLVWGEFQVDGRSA
Procedure: as §1

[9] = system: T9, Rep nickase domain of tomato yellow leaf curl virus
T9 sequence (residues 1-136, tag not shown): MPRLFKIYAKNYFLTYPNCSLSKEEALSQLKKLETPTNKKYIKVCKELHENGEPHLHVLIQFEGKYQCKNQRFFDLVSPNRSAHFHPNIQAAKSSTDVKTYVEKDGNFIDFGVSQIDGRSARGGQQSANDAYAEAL
Procedure: as §1

[10] = system: T10, Rep nickase domain of wheat dwarf virus
T10 sequence (residues 1-137, tag not shown): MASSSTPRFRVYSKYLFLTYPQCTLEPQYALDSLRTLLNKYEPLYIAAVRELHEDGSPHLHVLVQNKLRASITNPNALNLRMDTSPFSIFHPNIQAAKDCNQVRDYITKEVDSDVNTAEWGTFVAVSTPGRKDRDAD
Procedure: as §1

| Sequence | uncleaved DNA left (log2) [1] | uncleaved DNA left (log2) [2] | uncleaved DNA left (log2) [3] | uncleaved DNA left (log2) [4] | uncleaved DNA left (log2) [5] | uncleaved DNA left (log2) [6] | uncleaved DNA left (log2) [7] | uncleaved DNA left (log2) [8] | uncleaved DNA left (log2) [9] | uncleaved DNA left (log2) [10] |
| --- | --- | --- | --- | --- | --- | --- | --- | --- | --- | --- |
| CTAAGCG | 0.0138 | 0.0591 | -0.735 | 0.434 | 0.0169 | -0.684 | 0.165 | -0.113 | 0.0576 | -0.105 |
| AACACTT | -0.281 | -0.637 | -0.514 | -2.9 | -0.0525 | -0.352 | -2.85 | -0.273 | -0.23 | -0.23 |
| CTACCCC | -0.259 | -0.127 | -0.0326 | -1.68 | -0.129 | -0.336 | -1.14 | -0.0928 | -0.0514 | -0.219 |
| AACGCGC | -0.0105 | 0.00395 | -0.764 | -0.0446 | 0.0932 | -0.84 | 0.0902 | -0.0304 | -0.0917 | -0.198 |
| AGGTCAC | 0.116 | 0.119 | 0.298 | 0.381 | -0.00741 | 0.445 | 0.114 | 0.0564 | 0.163 | 0.211 |
| GTTTGAA | -0.00987 | 0.106 | 0.325 | 0.885 | 0.11 | 1.62 | 0.105 | 0.0799 | 0.0768 | 0.0914 |
| CCCCAAT | 0.0388 | -0.0865 | 0.106 | -0.5 | -0.168 | -0.694 | -0.174 | -0.119 | -0.0613 | -0.0344 |
| CGTGATC | -0.186 | -0.0875 | 0.049 | 0.224 | 0.033 | 0.0876 | -0.0288 | 0.0328 | 0.137 | -0.00921 |
| ATGCTCC | -0.0795 | -0.159 | -0.017 | 0.111 | -0.128 | 0.286 | -0.0622 | -0.147 | -0.202 | -0.0241 |
| TGTAGAG | 0.0063 | -0.0585 | -0.345 | -0.423 | -0.0413 | -0.934 | 0.0725 | -0.0618 | -0.111 | -0.168 |
| AACTACC | -0.0821 | -0.118 | -0.245 | -2.44 | -0.021 | -0.469 | -1.52 | -0.0217 | -0.0364 | -0.00908 |
| GACTCTT | -2.59 | -2.36 | 0.218 | -2.44 | -0.339 | 0.921 | -3.04 | -0.105 | -0.197 | -0.155 |
| CAAACGA | 0.0103 | -0.0367 | -0.44 | -0.671 | 0.0301 | -0.941 | 0.115 | 0.00412 | -0.0747 | -0.0568 |
| TCTTCTT | -2.88 | -0.304 | -0.0648 | -2.35 | 0.0492 | -0.39 | -3.36 | -0.105 | -0.0231 | -0.0209 |
| GGGATTG | 0.0422 | -0.00905 | 0.72 | 1.85 | -0.0544 | 2.09 | 0.229 | 0.0152 | -0.0257 | 0.179 |
| GTCAATC | 0.00682 | 0.0567 | 0.293 | 0.992 | -0.0395 | 1.62 | 0.026 | 0.0876 | 0.165 | 0.0973 |
| AGGTAGA | -0.0721 | -0.0151 | -0.124 | 0.0672 | -0.0445 | -0.237 | -0.0447 | -0.0156 | -0.0913 | -0.119 |
| ACTACGT | -0.00237 | -0.0009 | 0.114 | -0.276 | -0.0637 | -0.507 | -0.734 | 0.0734 | -0.0348 | 0.00249 |
| GAATACA | -0.159 | 0.0192 | 0.014 | -1.64 | 0.0452 | 0.69 | -0.575 | 0.0698 | 0.0979 | 0.0114 |
| ACACGCC | -0.0107 | -0.0806 | -0.383 | -0.642 | -0.0794 | -0.61 | 0.00434 | -0.114 | -0.179 | -0.0662 |
| TCGCAAT | -0.0381 | 0.135 | 0.559 | 1.58 | 0.00776 | 1.38 | -0.155 | 0.168 | 0.00282 | 0.0639 |
| CTCTATA | 0.0597 | -0.0153 | -0.191 | -1.76 | 0.0888 | -0.676 | -0.273 | 0.0149 | -0.213 | 0.08 |
| CTTGCGT | 0.0279 | -0.0934 | -0.927 | -0.425 | 0.0231 | -0.915 | 0.0384 | -0.071 | 0.00362 | -0.258 |
| TAAGTCA | 0.0246 | 0.0426 | -1.42 | -2.52 | 0.0518 | -0.545 | -0.0689 | -0.13 | 0.0776 | -0.854 |
| GAATGAG | 0.00986 | 0.0265 | -0.687 | -0.114 | 0.0629 | -1.01 | 0.0823 | -0.0257 | 0.109 | -0.0403 |
| CTGAAAA | 0.0722 | 0.076 | 0.119 | 0.142 | 0.0593 | -0.458 | 0.193 | 0.0539 | 0.061 | 0.243 |
| AAACAAT | 0.0468 | 0.215 | -0.274 | -2.13 | 0.1 | 0.107 | -0.16 | 0.218 | 0.0892 | -0.046 |
| GGGGGTG | -0.00233 | -0.0174 | 0.443 | 1.07 | 0.0719 | 1.65 | 0.262 | -0.0236 | -0.0835 | -0.066 |
| GTTATGT | 0.0185 | 0.115 | 0.342 | 0.782 | -0.103 | 1.51 | 0.121 | 0.0769 | 0.0695 | -0.00197 |
